Assay results: PubChem BioAssay AID624296 (National Center for Advancing Translational Sciences (NCATS), 2012)
About 9,900 (2.8%) of roughly 350,000 compounds were called active. The inconclusive results got no clear call from the source; some entries with a clear call stand among them for comparison. Calls come from the whole dose curve; as a rule, active = well fitted activation curve with a large enough effect; inconclusive = small, poorly fitted or top-dose-only effect; inactive = no such curve, though single readings can be large or run the other way. Potencies of inconclusive entries are left out as doubtful fits.

Test: A quantitative high throughput screen for small molecules that induce DNA re-replication in MCF 10a normal breast cells. Note: nearly all actives have a fitted effect of over 50% in size.
Settings: MCF 10A DNA re-replication, Hoechst nuclear intensity, 48 h; series mostly up to 46.1 µM
Potency is the fitted concentration of half-maximal effect; tags give direction and shape of the fitted curve.

Compound	Potency
O=C1ON=C(c2ccc([N+](=O)[O-])cc2)/C1=C/c1ccccc1O	inconclusive [activator, single point]
O=C(/C=C/c1ccc([N+](=O)[O-])s1)N1CCN(c2ccccc2)CC1	inconclusive [activator, single point]
Cc1ccc2c(NC(=S)NC(=O)c3ccccc3)cccc2n1	inactive
Oc1ccc(CN2CCN(c3ccccc3)CC2)c2cccnc12	inconclusive [activator, partial curve, poor fit]
O=C(NCCn1c(C(F)(F)F)nc2ccccc21)[C@H]1CCCN1c1nc(CN2CCCCC2)cs1	inconclusive [activator, full curve, poor fit]
COc1cccc(CN2CCc3ccc(NC(=O)CCc4ccc(C)cc4)cc3C2)c1O	inactive
Cc1ccnc(NS(=O)(=O)c2cnc(Cl)c(Br)c2)c1	inconclusive [activator, single point]
c1ccc(C2[C@H]3CN(Cc4cccnc4)[C@H](c4ccccc4)C34CC2(c2ccccc2)C4)cc1 (stereo partly specified)	inactive
CCNC(=S)N1CCC(Cc2ccccc2)CC1	inactive
COc1cccc(N(C(=O)Cc2cccs2)C(C(=O)NC2CCCC2)c2ccncc2)c1 (stereo unspecified)	inactive
Cc1ccc2c(c1)C(=O)CC(c1ccc3c(c1)OCCO3)O2 (stereo unspecified)	active: 16.4 µM
O=C(COCc1cc(-c2ccc3c(c2)OCO3)on1)N1CCN(c2ccc(F)cc2)CC1	inconclusive [activator, single point]
CC(=O)Oc1ccc(C(=O)Nc2cc(C)on2)cc1	inconclusive [activator, single point]
C[C@H](CO)N1C[C@H](C)[C@@H](CN(C)S(C)(=O)=O)Oc2c(NC(=O)Nc3ccccc3)cccc2C1=O	inconclusive [activator, single point]
O=S(=O)(Nc1ccc(O)c2ccccc12)c1cccs1	inconclusive [activator, single point]
CCCCCCC(=O)Cc1cc(OC)c(OC)cc1C=C(C(=O)OCC)C(=O)OCC	inconclusive [activator, single point]
CCOC(=O)c1nnn(-c2nc(N(C)C)nc(N(C)C)n2)c1C	inactive
COc1ccccc1N1CCN(CC(O)c2ccccc2)CC1 (stereo unspecified)	inactive
COc1ccc(C(NC(=O)CN2CCCCCC2)c2ccc(OC)cc2)cc1	inactive
CC(=O)c1c(C)[nH]c(C(=O)Nc2ccc(C)cn2)c1C	inactive
COCCn1c(C)cc(C(=O)COc2ccc(N(C)S(=O)(=O)c3ccc(C)cc3)cc2)c1C	inactive
C=CCn1c(SCC(C)=O)nnc1-c1cc(-c2ccccc2)sc1N	inactive
O=C(CNc1ccccc1Cl)c1ccc(Br)cc1	inconclusive [activator, single point]

Compound	Potency
COC(=O)C1=C(C)N(Cc2ccc(C)cc2)C(=O)/C1=C\c1cc(OC)c(OC)c(OC)c1	inconclusive [activator, single point]
COC(=O)c1c(NC(=O)c2c(OC)cccc2OC)sc2c1C(C(=O)OC)CC2 (stereo unspecified)	inconclusive [activator, partial curve]
C[n+]1c(-c2ccccc2)cc2c(=Cc3ccccc3)c3ccccc3n21	active: 20.6 µM
Cc1ccc(-c2cc(C(=O)Nc3ccc(S(=O)(=O)Nc4nccs4)cc3)c3ccccc3n2)c(C)c1	inconclusive [activator, single point]
CCSc1nc2sc3c(c2c(=O)n1-c1ccc(C)cc1)CCN(C)C3	active: 18.4 µM
CC(C)C[C@H](NC(=O)c1nc[nH]c1C(=O)N1CCN(c2ccccc2)CC1)C(=O)OCc1ccccc1	active: 11.6 µM
CCOC(=O)N1CCC(NC(=S)Nc2ccc3nc(N4CCN(CC)CC4)cc(C)c3c2)CC1	inactive
CC1=C([N+](=O)[O-])C(c2cccc(Br)c2)C2=C(N1)c1ccccc1C2=O (stereo unspecified)	inconclusive [activator, full curve, poor fit]
COc1ccc(N2CCN(Cc3nc4sc(C)c(C)c4c(=O)[nH]3)CC2)cc1	inactive
COc1cc(/C=C2/C(=O)ON=C2c2ccccc2)ccc1O	inconclusive [activator, single point]
N#Cc1c2c(c(NCc3ccco3)n3c1nc1ccccc13)CCC2	inconclusive [activator, full curve]
O=c1cc(-c2ccccc2)[nH]n1-c1nc2ccccc2s1	inconclusive [activator, single point]
O=C(CN1C(=O)NC2(CCc3ccccc3C2)C1=O)Nc1ccc(F)cc1 (stereo unspecified)	inconclusive [activator, partial curve, poor fit]
O=C(NC1CCCC1)C(c1ccc(F)cc1)N(Cc1ccc(F)cc1)C(=O)c1ccn[nH]1 (stereo unspecified)	inconclusive [activator, single point]
O=C(NCC(c1cccs1)N1CCOCC1)c1cc(S(=O)(=O)N2CCOCC2)c(Cl)cc1Cl (stereo unspecified)	inactive
C/C(CCC(C)C)=N\NC(=O)COc1ccccc1-c1ccccc1	inconclusive [activator, single point]
O=C(Nc1ccc(C(F)(F)F)cn1)Nc1cccs1	inactive
COCc1cc(C)nc(SCC(=O)Nc2ccc(C)c(C)c2)c1C#N	inconclusive [activator, single point]
Cc1ccccc1-c1cc(C(=O)Nc2sc(C(=O)OC(C)C)c(C)c2C#N)c2ccccc2n1	inconclusive [activator, full curve, poor fit]
CC1=NN(C(=O)c2ccc(Cn3ccc([N+](=O)[O-])n3)cc2)C(O)(C(F)(F)F)C1 (stereo unspecified)	inconclusive [activator, partial curve, poor fit]
CC(=O)Nc1ccc(NC(=O)COc2ccc(Br)cc2C)cc1	inactive
Cc1ccc(Nc2cc(=O)oc3ccccc23)c(C)c1	inactive
O=C(COc1cc2oc(=O)cc(-c3ccccc3)c2cc1Cl)NCCN1CCOCC1	inconclusive [activator, single point]
